Test results reported in PubChem BioAssay AID463173 (ICCB-Longwood Screening Facility, Harvard Medical School, 2010).
In all, about 52,000 compounds went through this assay and about 1,700 (3.3%) were called active. Rule as the data show it: active = survival mostly below about 52% (no sharp cut-off); inactive = mostly above about 56%. This is one part of the list.

system: Wild type; test: growth inhibition of S. aureus wild type versus tarO mutant, primary screen, teichoic acid synthesis inhibitors, RN4220, OD600 (AID 463173); settings: S. aureus RN4220 wild type/DeltatarO growth, OD600, 18 h, active compounds read low, screened at 18.75 µg/mL (by protocol)

| Structure (SMILES) | survival |
| --- | --- |
| COc1ccc(CCNC(=O)c2ccc3c(c2)N(Cc2ccccc2C)C(=O)c2ccccc2S3)cc1OC | inactive: 128% |
| Cc1ccccc1NC(=O)CSc1nnc(-c2cccs2)o1 | inactive: 91% |
| CCc1ccc2oc(-c3cc(NC(=O)c4cc([N+](=O)[O-])ccc4N4CCOCC4)ccc3Cl)nc2c1 | inactive: 74% |
| Cc1ccc(Cl)cc1N1CCN(C(=O)c2cc3c(-c4ccccc4F)nn(C)c3s2)CC1 | inactive: 64% |
| Fc1ccc(-c2cn3cc(Cc4ccccc4)sc3n2)cc1 | inactive: 95% |
| COc1ccc(NC(=O)CSc2nc(-c3ccco3)cc(C(F)(F)F)n2)cc1Cl | inactive: 62% |
| CCCN(CCC)C(=O)Cn1c(=O)n(-c2ccc(Cl)cc2)c(=O)c2c3c(sc21)CCCC3 | inactive: 89% |
| COc1ccc(CNC(=O)c2cnc(N3CCOCC3)c3ccccc23)cc1 | inactive: 84% |
| N#Cc1ccccc1NC(=O)CSc1nnc(N)s1 | inactive: 86% |
| CCCCS(=O)(=O)c1nc(-c2ccc(Br)cc2)cc(-c2ccccc2)c1C#N | inactive: 131% |
| COc1ccc(-n2ncc(C(=O)N3CCOCC3)c2C2CCN(C(=O)OC(C)(C)C)CC2)cc1 | inactive: 65% |
| Cc1cccc(NC(=O)CCc2c(C)nc3c(c(C)nn3C(C)(C)C)c2C)c1C | inactive: 71% |
| O=C1COc2ccc(-c3cc(-c4ccccc4)c4c(n3)-c3cc(Cl)ccc3OC4)cc2N1 | inactive: 66% |
| CCN(C(=O)c1cn(CC)c(=O)c2cc(OC)c(OC)cc12)c1ccc(C)c(C)c1 | inactive: 146% |
| Cc1ccc(N2CCN(S(=O)(=O)c3ccc4[nH]c5c(c4c3)CCCCC5)CC2)c(C)c1 | inactive: 135% |
| O=C(Nc1cccc(F)c1F)C1CCN(c2ncccn2)CC1 | inactive: 89% |
| CC(=O)N1N=C(N)SC1c1ccccc1 (stereo not drawn) | inactive: 104% |
| COc1ccc(-c2nc3c(c(SCC(=O)N4CCCCC4)n2)Cc2c(CO)cnc(C)c2O3)cc1 | inactive: 101% |
| COC(=O)c1cc(NC(=O)c2ccc3c(c2)NC(=O)c2ccccc2S3)cc(C(=O)OC)c1 | inactive: 100% |
| CSc1cccc(NC(=O)Cn2ncn3c(cc4ccccc43)c2=O)c1 | inactive: 72% |

| Structure (SMILES) | survival |
| --- | --- |
| CCSc1nn(CC(=O)Nc2ccc(C(=O)OC)cc2)c(N)c1S(=O)(=O)c1ccc(C)cc1 | inactive: 32% |
| COc1cccc(-n2nnc(-c3nc(-c4ccccc4F)no3)c2C)c1 | inactive: 82% |
| O=C(Nc1ccc(F)cc1)N1CCN(C(=O)c2nsc3ccccc23)CC1 | active: 14% |
| COC(=O)c1cc2occc2n1CC(=O)Nc1ccc(C(C)C)cc1 | inactive: 79% |
| Cc1cccc(N2CCN(C(c3ccccc3)c3nnc(-c4ccccc4Cl)o3)CC2)c1C (stereo not drawn) | inactive: 52% |
| COc1ccc(OC)c(CNC(=O)CN2CC(C)Sc3ccccc32)c1 (stereo not drawn) | inactive: 92% |
| CCOc1ccccc1NC(=O)C(c1ccccc1)N1Cc2ccccc2C1=O (stereo not drawn) | inactive: 80% |
| Fc1ccccc1N1CCN(c2ncc3c(n2)CCN(Cc2cc(Br)cs2)C3)CC1 | inactive: 75% |
| Cn1nnc2c(N3CCN(c4cccc(C(F)(F)F)c4)CC3)ncnc21 | inactive: 101% |
| CCc1noc(-c2ccc(N3CCCCC3)c([N+](=O)[O-])c2)n1 | inactive: 75% |
| Cc1cc(OCC(=O)NCC2(N3CCOCC3)CCCCC2)ccc1Cl | inactive: 93% |
| C=CCNC(=O)c1cc2sccc2n1Cc1ccccc1 | inactive: 121% |
| CC(Sc1nnc(-c2ccncc2)o1)C(N)=O (stereo not drawn) | inactive: 99% |
| COc1ccccc1CN1CCC(CNC(=O)c2cnn(-c3ccc(C)c(C)c3)c2C2CCN(C(=O)OC(C)(C)C)CC2)CC1 | inactive: 65% |
| CCc1cccc(NC(=O)C(CC(C)C)NS(=O)(=O)c2ccc3c(c2)oc(=O)n3C)c1 (stereo not drawn) | inactive: 140% |
| CCC(=O)N1CCc2cc(CNC(=O)Nc3cc(Cl)ccc3C(=O)OC)ccc21 | inactive: 91% |
| Brc1ccc2nc(-c3ccccc3)c(Nc3ccc4c(c3)OCO4)n2c1 | inactive: 105% |
| O=C(c1cc2sccc2n1Cc1ccccc1)N1CCCCC1 | inactive: 139% |
| CCCN(CCC)CCNC(=O)c1cc(-c2ccc(Br)s2)nc2ccccc12 | inactive: 80% |
| N#CCC(=O)N1CCN(c2ccccc2)CC1 | inactive: 106% |

| Structure (SMILES) | survival |
| --- | --- |
| COc1ccccc1-c1nnc(SCC(=O)c2ccc(F)cc2)n1-c1ccccc1 | active: 0% |
| CCc1ccc(CNC(=O)CN2C(=O)CCn3nc(-c4cn(C)c5ccccc45)cc32)cc1 | inactive: 72% |
| O=C(Nc1cccc(Cl)c1)C1CCCN1S(=O)(=O)c1cccc2cccnc12 (stereo not drawn) | inactive: 120% |
| Cn1nnnc1SCCNCc1ccc(OCc2ccc(Cl)cc2)cc1 | inactive: 68% |
| Cc1cc(Cl)ccc1OCc1cc(=O)n2c3c(sc2n1)CCCC3 | inactive: 81% |
| Cc1ccc(CN2C(=O)c3ccccc3Sc3ccc(C(=O)NCCCN4CCOCC4)cc32)cc1 | inactive: 131% |
| CCc1ccc(C2=C(C)C(N3CCC(C(=O)NCCc4ccco4)CC3)=NS2(=O)=O)cc1 | inactive: 51% |
| COc1cccc(OCC(=O)Nc2nnc3n2CCS3)c1 | inactive: 68% |
| Cc1oc(-c2cccc(Cl)c2)nc1CN1CCC(C(=O)NCCc2ccc(Cl)cc2)CC1 | inactive: 88% |
| Cc1cccc(NC(=O)CSc2nc(=O)n(Cc3cccnc3)c3c2CCC3)c1C | inactive: 73% |
| O=C(NC1CCCCC1)N(Cc1cc2cc3c(cc2[nH]c1=O)OCCO3)C1CCCCC1 | inactive: 104% |
| COc1ccc(C(=O)Nc2ccc(N3CCOCC3)c(C(F)(F)F)c2)cc1OC | inactive: 75% |
| COc1ccccc1NC(=O)c1cc(S(=O)(=O)N2CCc3ccccc32)ccc1F | inactive: 71% |
| COc1ccc(NC(=O)c2cc3c(=O)n(Cc4cccnc4)ccc3nc2C)cc1Cl | inactive: 124% |
| C=Cc1ccc(Cn2c(=O)cc(C)c3c(C)nn(C)c32)cc1 | active: 0% |
| Cc1cccc(N2CCN(c3c4c(nc5nncn35)CCC4)CC2)c1C | inactive: 84% |
| CN(C)c1ccc(C(CNS(=O)(=O)c2ccc(F)cc2)N2CCc3ccccc32)cc1 (stereo not drawn) | active: 0% |
| COc1cc(-c2nnc(SCC(=O)Oc3ccccc3Cl)o2)cc(OC)c1OC | inactive: 82% |
